# Laboratory results taken from PubChem BioAssay AID662 (National Center for Advancing Translational Sciences (NCATS), 2007).
# The whole screen tested about 71,000 compounds, of which about 1,800 (2.5%) were called active. The inconclusive results got no clear call from the source; some entries with a clear call stand among them for comparison. Calls come from the whole dose curve; as a rule, active = well fitted activation curve with a large enough effect in the signal ratio, with a control signal flat (not every such curve was filed as active); inconclusive = small, poorly fitted or top-dose-only effect, or effect the other way, or a change in a side signal; inactive = flat fitted curve, though single readings scatter; the % refers to the signal ratio. Where the call is inconclusive, the potency comes from a doubtful curve fit.
# Test: Cell signaling CRE-BLA (Fsk stim); for activity change, negative = inhibition: % of control where 0% means no effect
# Conditions: CHO CRE-bla reporter (cAMP response element driving beta-lactamase), forskolin EC10, beta-lactamase ratio
# In short: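 Forskolin analogue NKH 477 at EC10 stimulated CRE-driven beta-lactamase in CHO cells alongside compound dilution series. Beta-lactamase was measured with CCF4, excitation 405 nm, emission ratio 460/530 nm.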
# [1] = activity change, negative = inhibition: at 38.2 µM (top of the series) unless noted
# Potency is the fitted concentration of half-maximal effect; tags give direction and shape of the fitted curve.
compound,measurement,setting,value
Cc1nnc(SCCn2c(N3CCC(Cc4ccccc4)CC3)nc3c2c(=O)[nH]c(=O)n3C)s1,Potency,[1],"inconclusive: 0.316 µM [rising, full curve, poor fit]"
COc1ccc(C(=O)CN2C(=O)C(C)(C)Oc3ccc(C(=O)N4CCCCCC4)cc32)cc1,"activity change, negative = inhibition",[1],inconclusive: -8.65%
COc1ccc(N2C(=O)C3CCCN3C2c2ccc(Cl)cc2)cc1 (stereo not given),"activity change, negative = inhibition",[1],inactive
CCn1c(=O)[nH]c2cc(Cl)c(Cl)cc21,"activity change, negative = inhibition",[1],inconclusive: -11.9%
same,"activity change, negative = inhibition",at 38.2 µM (top of the series),inactive: 6.56%
COc1ccc2c(c1)c1ncn(CCN3CCCC3)c(=O)c1n2C,Potency,[1],"inconclusive: 20 µM [rising, single point]"
CCC(Sc1nc(N)c(NC(=O)c2ccc(OC)c(OC)c2)c(=O)[nH]1)C(=O)OC (stereo not given),Potency,[1],"inconclusive: 10 µM [rising, single point]"
COC(=O)c1sccc1NC(=O)c1cc2c(s1)CCCC2,"activity change, negative = inhibition",[1],inactive
CN(C)C(=O)c1ccc(-c2nccc(Nc3ccc(F)cc3)n2)cc1,"activity change, negative = inhibition",[1],inconclusive: 10%
COc1ccc(-c2nc(C#N)c(NCc3ccccc3Cl)o2)cc1OC,Potency,[1],"inconclusive: 2.51 µM [rising, full curve]"
Cc1nc(SCC(=O)NCc2ccco2)nc(C)c1C,"activity change, negative = inhibition",[1],inconclusive: -11.7%
Cc1nn2c(-c3ccccc3)nnc2c2ccccc12,Potency,[1],"inconclusive: 10 µM [rising, partial curve]"
Cc1cc(C)cc(N(CC(=O)NCC2CCCO2)C(=O)CN2C(=O)COc3ccccc32)c1 (stereo not given),"activity change, negative = inhibition",[1],inconclusive: -12.8%
O=C(Nc1nc2ccccc2n1CCN1CCOCC1)c1cn(-c2ccccc2)nc1-c1ccccc1,Potency,[1],"inconclusive: 7.94 µM [rising, partial curve]"
CCN(CC)C(=O)C1CCCN(Cc2ccccc2F)C1 (stereo not given),"activity change, negative = inhibition",[1],inconclusive: 4.67% [at 7.6 µM]
CCOc1ccccc1NC(=O)Cn1cnc2c(cnn2-c2ccc(C)c(C)c2)c1=O,"activity change, negative = inhibition",[1],inconclusive: -1.55%
CCCCOC(=O)C1=C(C)Nc2ncnn2C1c1ccc(OC)c(OC)c1OC (stereo not given),"activity change, negative = inhibition",[1],inactive
O=C(NC1CCCCC1)c1ccc2c(=O)n(CC3CCCO3)c(=O)[nH]c2c1 (stereo not given),Potency,[1],"inconclusive: 0.0794 µM [falling, full curve]"
COC(=O)c1sc(=S)n(-c2cc(F)ccc2F)c1N,Potency,[1],"inconclusive: 10 µM [rising, partial curve, poor fit]"
COc1ccc(OC)c(NC(=O)Cn2cc(C(=O)c3ccco3)c3ccccc32)c1,"activity change, negative = inhibition",[1],inconclusive: -1.79%
CN1C(=O)c2cccc(N(C)C)c2C1=O,Potency,[1],"inconclusive: 10 µM [rising, single point]"
COc1cc(C2C3=C(Nc4ncnn42)c2ccccc2CC3)cc(OC)c1OC (stereo not given),Potency,[1],active: 0.501 µM
CCOC(=O)c1ccc(Oc2nc(OC)nc(N(C)C)n2)cc1,Potency,[1],"inconclusive: 10 µM [rising, single point]"
O=c1[nH]c(SCc2c(Cl)c(Cl)c(Cl)c(Cl)c2Cl)nc(=S)[nH]1,"activity change, negative = inhibition",[1],inactive: 6.75% [at 7.6 µM]
CCOC(=O)c1c(C)n(C)c2ccc(OCC(O)Cn3nc(C)cc3C)cc12 (stereo not given),Potency,[1],active: 12.6 µM
Cc1cccc(-c2nnc3n2N=C(c2ccccc2Br)CS3)c1,Potency,[1],"inconclusive: 5.01 µM [rising, partial curve]"
CCc1ccc2c(c1)[C@]1(C(=O)N2)[C@@H]2C(=O)N(Cc3ccccc3)C(=O)[C@@H]2[C@@H]2CCCN21,"activity change, negative = inhibition",[1],inactive
COCCCn1c2nc3ccccc3nc2c2c(=O)n(Cc3ccccc3Cl)cnc21,"activity change, negative = inhibition",[1],inactive
Cc1ccc2c(CSc3nnc(C4CC4)n3N)cc(=O)oc2c1,Potency,[1],"inconclusive: 3.16 µM [rising, partial curve, poor fit]"
Cc1coc2c(C)c3oc(=O)c4c(c3cc12)CCC4,Potency,[1],"inconclusive: 1.26 µM [rising, partial curve]"
CC(=O)c1cccc(N2C(=NC(=O)C(C)C)SC3CS(=O)(=O)CC32)c1 (stereo not given),"activity change, negative = inhibition",[1],inactive
CCC(Sc1nc2cc3c(cc2c(=O)n1Cc1ccco1)OCO3)C(=O)Nc1cccc(OC)c1 (stereo not given),"activity change, negative = inhibition",[1],inconclusive: 19.9%
C=CCSc1nc2ccccc2[nH]1,"activity change, negative = inhibition",[1],inconclusive: -5.71%
CCn1c(C(C)NC(=O)c2cccc(C)c2)nc2ccccc21 (stereo not given),"activity change, negative = inhibition",[1],inactive
CCN(CC)S(=O)(=O)c1ccc(F)c(C(=O)NCCC(C)C)c1,"activity change, negative = inhibition",[1],inconclusive: 7.21%
Cc1ccccc1Cn1cc(NC(=O)c2cc3nc(-c4ccco4)cc(C(F)(F)F)n3n2)cn1,Potency,[1],"inconclusive: 15.8 µM [rising, single point]"
CCN(CC)CCCNC(=O)c1cc2c(=O)n(C)c3ccccc3c2n1C,Potency,[1],"inconclusive: 10 µM [rising, single point]"
O=C(c1cccc(F)c1)N1CCC2(CCCN(c3ccccn3)C2)CC1,"activity change, negative = inhibition",[1],inactive
CCOc1ccc(N(CC(=O)Nc2ccccc2C)S(=O)(=O)c2c(C)noc2C)cc1,Potency,[1],"inconclusive: 6.31 µM [rising, partial curve]"
CCCC(=O)Nc1nc2ccc(OCC)cc2s1,"activity change, negative = inhibition",[1],inactive
CC1CC(C)CN(c2oc(-c3ccccc3Cl)nc2C#N)C1 (stereo not given),Potency,[1],"inconclusive: 15.8 µM [rising, partial curve]"
CN(Cc1cccs1)S(=O)(=O)c1cccs1,"activity change, negative = inhibition",[1],inconclusive: -3.55%
COC(=O)[C@@]1(Cc2ccc(OC)cc2)[C@@H]2C(=CC(=O)[C@H]2CC(=O)C(=O)N(C)C)CN1C(=O)c1ccccc1,Potency,[1],"inconclusive: 10 µM [falling, single point]"
O=c1[nH]c(CN2CCc3ccccc3C2)nc2ccccc12,"activity change, negative = inhibition",[1],inactive
CCOC(=O)CCCCC(=O)c1[nH]c(=O)[nH]c1CSc1nc(C)cc(C)n1,Potency,[1],"inconclusive: 5.01 µM [rising, single point]"
CCCCC(CC)COCCCN (stereo not given),"activity change, negative = inhibition",[1],inactive
Cc1cccc(NC(=O)Nc2ccc(C#N)cc2)n1,Potency,[1],"inconclusive: 2.51 µM [falling, full curve, poor fit]"
COC(=O)C1=CO[C@@H](C)[C@H]2CN3CCc4c([nH]c5ccccc45)[C@@H]3C[C@H]12,"activity change, negative = inhibition",[1],inconclusive: -9.12% [at 17.1 µM]
same,"activity change, negative = inhibition",at 17.1 µM (top of the series),inactive: 2.29%
COc1ccc(C(c2nnnn2C2CCCC2)N2CCC(C(N)=O)CC2)c(OC)c1 (stereo not given),"activity change, negative = inhibition",[1],inactive
CS(=O)(=O)N(CC(=O)N1CCCC1)c1ccc(Cl)c(Cl)c1,"activity change, negative = inhibition",[1],inconclusive: -2.65% [at 7.6 µM]
COc1ccccc1CNC(=O)CCn1c(=O)sc2ccccc21,"activity change, negative = inhibition",[1],inactive
O=C(c1ccco1)N1CCN(S(=O)(=O)c2ccc(S(=O)(=O)NC3CCCCC3)cc2)CC1,"activity change, negative = inhibition",[1],inactive
CSCCC=O,"activity change, negative = inhibition",[1],inactive
COc1cc(C2C3CN(C)CC=C3C(C#N)=C(N)C2(C#N)C#N)ccc1OC(C)C (stereo not given),Potency,[1],"inconclusive: 5.01 µM [rising, single point]"
O=c1c2ccccc2nnn1CSc1nnc(COc2ccc(Cl)cc2)n1Cc1ccco1,Potency,[1],"inconclusive: 0.158 µM [falling, full curve, poor fit]"
CC(C)CC1C(C#N)=C(N)SC(N)=C1C#N,"activity change, negative = inhibition",[1],inconclusive: 9.84% [at 7.6 µM]
COc1cccc(C(=O)OCCN2C(=O)c3ccccc3C2=O)c1OC,"activity change, negative = inhibition",[1],inconclusive: 27.4%
COc1ccc(C(=O)n2nc(-c3ccc(Cl)cc3)nc2N)cc1OC,Potency,[1],active: 2 µM
Cc1ccc(N(C(=O)Cn2nnc3ccccc32)C(C(=O)NCc2ccco2)c2cccnc2)cc1 (stereo not given),Potency,[1],"inconclusive: 10 µM [falling, partial curve, poor fit]"
COc1ccccc1C(=O)N1CCN(c2nc3cc(C)c(C)cc3cc2C#N)CC1,Potency,[1],"inconclusive: 10 µM [rising, partial curve]"
NC(=O)CN1C(=O)C2C3C=CC(C3)C2C1=O (stereo not given),"activity change, negative = inhibition",[1],inconclusive: 25.4%
O=S(=O)(NC1CCN(Cc2ccccc2)CC1)c1cccc2cccnc12,"activity change, negative = inhibition",[1],inconclusive: -10.1%
COc1ccc(C2CC(c3cccc(OC)c3OC)n3nnnc3N2)cc1 (stereo not given),"activity change, negative = inhibition",[1],inactive
CCOC(=O)c1[nH]c(C)c(C(=O)OCC(=O)N2CCCCC2C)c1C (stereo not given),Potency,[1],"inconclusive: 10 µM [rising, single point]"
O=S(=O)(Nc1nc2ccccc2nc1NCc1ccco1)c1ccc(Cl)cc1,"activity change, negative = inhibition",[1],inactive
O=C(O)C1CCCCC1C(=O)N1CC=C(c2ccccc2)CC1 (stereo not given),"activity change, negative = inhibition",[1],inconclusive: 0.0603%
N#Cc1ccccc1-c1cncnc1NCc1cccnc1,Potency,[1],"inconclusive: 1 µM [rising, full curve, poor fit]"
CSc1ccc2c(c1)N(CCCN(C)C)c1ccccc1S2,"activity change, negative = inhibition",[1],inactive: -2.12% [at 7.6 µM]
CCOc1ccc2c(c1)c1nnc(SCC(=O)N3CCCCC3C)nc1n2C (stereo not given),Potency,[1],"inconclusive: 3.16 µM [rising, single point]"
N=c1c2c3c(sc2ncn1N)CCCCC3,"activity change, negative = inhibition",[1],inactive
Cn1c(SCC(=O)NCc2ccc3c(c2)OCO3)nnc1-c1cccs1,"activity change, negative = inhibition",[1],inconclusive: -11.8%
CC(C)C[C@H]1C(=O)N2CCC[C@@H]2[C@]2(O)O[C@](NC(=O)[C@@H]3C=C4c5cccc6[nH]c(Br)c(c56)C[C@H]4N(C)C3)(C(C)C)C(=O)N12,Potency,[1],active: 3.98 µM
COc1ccccc1CNC(=O)C(CCSC)NS(=O)(=O)c1ccc2c(c1)oc(=O)n2C (stereo not given),"activity change, negative = inhibition",[1],inconclusive: 18.3%
COc1ccc(C(=O)N2CCN(c3ccc(C)cc3)CC2)cc1OC,"activity change, negative = inhibition",[1],inconclusive: 27.3%
COc1ccc(Oc2ncc3nc(-c4cc(F)cc(F)c4)c(=O)n(C)c3n2)cc1,"activity change, negative = inhibition",[1],inconclusive: 16%
Nc1nonc1-c1nc2ccccc2n1Cc1ccc(Cl)cc1,"activity change, negative = inhibition",[1],inactive
CC1CCC(C(=O)NC(C(=O)NCCN2CCC(C)CC2)C(C)C)CC1 (stereo not given),"activity change, negative = inhibition",[1],inconclusive: 22.4%
COc1cc(OC)c(-c2nn3c(C4CCCCC4)nnc3s2)cc1OC,Potency,[1],active: 3.98 µM
CCOc1ccc(OCC)c(Nc2cc(C)nc3nc(C)nn23)c1,Potency,[1],active: 10 µM
